According to PubChem BioAssay AID1508623 (National Center for Advancing Translational Sciences (NCATS), 2021):
In all, about 48,000 compounds went through this assay and about 450 (0.94%) were called active. Inconclusive results (about 19%) are left out. Calls come from the whole dose curve; as a rule, active = well fitted inhibition curve with a large enough effect; inconclusive = small, poorly fitted or top-dose-only effect; inactive = no such curve, though single readings can be large or run the other way. The list shows a part of the results.

Assay: Primary qHTS for Identification of Small Molecule Inhibitors of Huntingtin Promoter Activity; note: nearly all actives have a fitted effect of over 50% in size
Settings: HEK293 HTT promoter firefly luciferase reporter (activity 0% = vehicle and -100% = no light), 24 h; series mostly up to 57.5 µM; activity change, negative = inhibition: at the top concentration
Summary of the method: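 HEK293 luciferase promoter-reporter cells (2,500/well) plated 24 h, then compounds added at up to 57.5 uM final for 24 h at 37 °C. Firefly luminescence by Dual-Glo, normalized to vehicle (0%) and zero RLU (-100%).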

Activity change, negative = inhibition, inactive:
CCOc1ccccc1C(=O)Nc1ccc2nc(N(CC)CC)cc(C)c2c1 -1.24%
Cc1ccc(OCC(=O)Nc2nnc(SCc3cc(=O)c4ccccc4[nH]3)s2)cc1 -12.4%
Cc1cc(N2CCCCC2)nc2ccc(NC(=O)c3cccc(Cl)c3)cc12 -20.4%
CCOc1ccc(CNS(=O)(=O)c2cc3c(cc2C)NC(=O)CO3)cc1OC -14%
CCCS(=O)(=O)N1CC(=O)N(c2ccc(Cl)cc2C)C(C)(C(=O)NC2CCCC2)C1 (stereo unspecified) -8.59%
COc1cc2nc(NC(=O)c3ccc(S(=O)(=O)N4CCOCC4)cc3)sc2cc1OC -10.9%
COc1ccc(NC(=O)CSC2=Nc3ccccc3C3=NC(CCC(=O)NC4CCCCC4)C(=O)N23)cc1 (stereo unspecified) -11.4%
CC(=O)c1cccc(NC(=O)C2CCN(S(=O)(=O)c3ccc4c(c3)oc(=O)n4C)CC2)c1 -12%
N[C@@H](CSCCCO)C(=O)O 0.684% [at 25.2 µM]
O=C(CSCc1ccccc1Cl)N1CCN(c2ccc(Cl)cc2)CC1 -9.58%
COc1c(C)cccc1C(=O)Nc1cccc2ccc(C)nc12 -23.2%
CCOC(=O)C1CCN(C(=O)c2ccc(-n3ccc4ccccc43)s2)CC1 42%
O=C1CC[C@H](C(=O)N2CCCCC2)N1 -3.72%
COc1ccc(Cn2ccn(Cc3cccc(OC)c3)c(=O)c2=O)cc1 -28.6%
Cc1ccc(C(=O)c2cn(CC(=O)Nc3ccc(C)cc3Cl)c3nc(C)ccc3c2=O)cc1 0.632%
CCOc1cc(CNC(=O)c2ccc3c(c2)NC(=O)C2CCCCN32)cc(OCC)c1OCC (stereo unspecified) -9.21%
Cc1cn2c(=O)cc(COC(=O)c3ccc(NC(=O)COc4ccccc4F)cc3)nc2s1 -10.1%
CCOc1ccccc1OCCCn1c(-c2ccc(Cl)cc2)nc2ccccc2c1=O -16.1%
Cc1cc(C)cc(-n2c(-c3ccccc3)c(C)n3c4c(=O)n(C)c(=O)n(C)c4nc23)c1 -7.04%
COc1cc(C(=O)NCC(c2cccs2)S(=O)(=O)c2cccs2)cc(OC)c1OC (stereo unspecified) -11.1%
CCOc1ccc(CCNC(=O)Cn2nc(CC)n3c(cc4ccccc43)c2=O)cc1 6.5%
CCOC(=O)c1[nH]c(C)c(CCC(=O)Nc2cc(C)ccc2OC)c1C -12.5%
Cc1ccccc1CN1CCC(CNC(=O)c2c(C)oc3ncnc(N4CCCCC4)c23)CC1 0%
CCC(Sc1nc(-c2ccccc2F)nc2c1Cc1c(CO)cnc(C)c1O2)C(=O)Nc1cc(C)ccc1C (stereo unspecified) -16.8%
CCOc1ccc(CCNC(=O)C2=C(C)C(=O)OC23CCCCC3)cc1 -13.7%
Fc1ccc(-c2noc3ncnc(NCc4ccc(Cl)cc4)c23)cc1 -25.7%
O=C(CCn1c(=O)c2cccn2c2cccnc21)NCc1ccc(F)cc1 0.648%
COc1cc(C2CC(=O)Oc3c2c(=O)n(C)c2ccccc32)ccc1O (stereo unspecified) -11.3%
CCOC(=O)C1CCN(S(=O)(=O)c2ccc3c(c2)N(C)C(=O)CC(=O)N3C)CC1 -21%
COc1ccc(C(=O)NC2(C(F)(F)F)C(=O)Nc3c2c(=O)[nH]c(=O)n3CCc2ccc(OC)c(OC)c2)cc1 (stereo unspecified) -5.06%
COc1ccc(-c2cc(C(C)=O)c(C)n2CCC(=O)Nc2cc(Cl)ccc2C)cc1 -41.6%
O=C(COc1ccccc1)Nc1ccc2nc(SCCOc3ccccc3)sc2c1 3.97%
CCOC(=O)c1c(C)[nH]c(C)c1S(=O)(=O)N(C)CC(=O)Nc1ccc(C)cc1C -11%
Cc1ccc(NC(=O)Cn2c(=O)n(CC3CCCO3)c(=O)c3ccccc32)cc1 (stereo unspecified) -13.5%
Cc1cc(C)c2oc(-c3cccc(NC(=O)COc4ccc([N+](=O)[O-])cc4)c3)nc2c1 -26.1%
Cc1ccc(Cl)cc1N1CCN(C(=O)c2ccc(CS(=O)(=O)c3ccccc3C)o2)CC1 -32.5%
Cn1nc(C(=O)Nc2ccc(F)c(Cl)c2)c2c1-c1ccccc1S(=O)(=O)C2 -16.9%
CC(=O)CSc1nnc2[nH]c(=O)cc(N)n12 -9.17%
COc1cc(C2NC(=O)c3c(sc4c3CCN(C)C4)N2)cc(OC)c1OC (stereo unspecified) 2.94%
CCOc1cc2[nH]c(=O)n(Cc3ccc(C(=O)N4CCN(c5cccc(Cl)c5)CC4)cc3)c(=O)c2cc1OCC -20.2%
CCc1ccc(CNC(=O)C2CCN(c3nn4cc(-c5ccc(F)cc5)nc4s3)CC2)cc1 -4.65%
COc1ccc(Br)cc1CN1C(=O)c2ccccc2C1C(=O)NC1CCCCCC1 (stereo unspecified) -3.63%
O=C(Cn1c(=O)nc(-c2ccccc2)c2cc(Cl)ccc21)N1CCN(c2ccc(F)cc2)CC1 -3.61%
CCOC(=O)c1c(C)c(-c2ccccc2)n(CC(=O)NC2CCCCC2)c1C -2.71%
COc1ccc(Cl)cc1NC(=O)c1nn(-c2ccc(C)cc2)c(=O)n(C)c1=O 1.23%
Cc1cccc(CNC(=O)CS(=O)(=O)c2cccc3nsnc23)c1 -6.4%
COc1cc(NC(=O)Cn2cnc(S(=O)(=O)N3CCCC3)c2)cc(OC)c1OC -4.08%
COC(=O)C1=C(C)NC(C)=C(C(=O)OC(C)C)C1c1cccc2nonc12 (stereo unspecified) -3.41%
CCN(C(=O)c1cnc2ccc(C)cn2c1=O)c1ccccc1 -7.52%
CCOC(=O)C1CCN(C(c2cccc(F)c2)c2c(O)cc(C)n(CCOC)c2=O)CC1 (stereo unspecified) -3.04%
O=C1OC(OC(=O)c2cccnc2Nc2cccc(C(F)(F)F)c2)c2ccccc21 (stereo unspecified) -4.73%
Clc1ccc(-c2noc3ncnc(NCCc4ccccc4)c23)cc1 -30.2%
CCc1ccc(NC(=O)C2CCN(c3nn4c(=O)cc(C)nc4s3)CC2)cc1 -14.1%
N#C[C@H]1C[C@H]2C[C@@H]2N1C(=O)[C@@H](N)C12CC3CC(CC(O)(C3)C1)C2 -9.55%
O=C(Nc1ccc2c(c1)CCCN2C(=O)c1cccs1)c1ccccc1Cl -28%
COc1cc(OC)c(Nc2nc3ccc(C(=O)c4ccccc4)cc3n3c(C)nnc23)cc1Cl -7.84%
O=c1nc2n(-c3ccccc3F)c3ccccc3cc-2c(=O)[nH]1 -18.1%
O=C(Nc1ccc(OC(F)(F)F)cc1)c1cc2ccccn2n1 -24.8%
CCOC(=O)c1c(NC(=O)c2ccc(S(=O)(=O)N(CC(C)C)CC(C)C)cc2)sc2c1CCN(C(=O)OCC)C2 -5.91%
CCC(=O)N(CCC(c1ccccc1)c1ccc2c(c1)OCO2)Cc1ccc(OC(C)C)cc1 (stereo unspecified) -28.5%
COc1ccc(NC(=O)CSc2nnc(-c3nonc3NC(C)=O)n2-c2ccccc2)cc1 -15.3%
